Source: PubChem BioAssay (NCI)
“And” between values parts separate entries of the source, which are not always exact repeats. Equal entries are not always repeated.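 1) Cells in 96-well plates. 2) Compound, 48 h, 5 concentrations. 3) Linear interpolation between surrounding doses. 4) Unreached endpoint = highest concentration. The concentration for 50% growth inhibition is given as GI50. TGI: total growth inhibition.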 The source made the active and inactive calls. Cut-off read from the data, not from the text of the source: active = GI50 below about 0.43 µM; inactive = the rest.

Tested on: NCI-H322M lung
Assay: NCI tumour cell line growth inhibition, 48 h

SMILES	TGI	GI50	outcome
CCCC(=O)c1ccc(=O)n(C)c1	> 100 µM	–	–
O=C(Oc1ccccc1Cl)c1ccccc1Nc1cccc(C(F)(F)F)c1	> 100 µM	37.8 µM	–
COc1ccc(-c2nnc(SCC(=O)Nc3ccc(C(=O)/C=C/c4cc(OC)c(OC)c(OC)c4)cc3)n2-c2ccccc2)cc1OC	> 10 µM	> 10 µM	–
N#Cc1c(N2CCCC2)nsc1Nc1ccc(F)cc1	> 100 µM	–	–
CCOC(=O)Cn1c(-c2nonc2NC(=O)c2ccccc2F)nc2ccccc21	> 100 µM	47.6 µM	–
CCC(C)c1cccc(C)c1NC(=O)C(=O)Cc1nc2ccccc2s1 (configuration not stated)	> 100 µM	–	–
COc1ccc(-c2nc(-c3cnccn3)n(Cc3ccccc3)n2)cc1	> 100 µM	–	–
CCN(CC)C1Oc2cc3c(cc2C(c2cccc(OC)c2O)C1C)OCO3 (configuration not stated)	36.5 µM	–	–
Cc1c2oc3c(C)cc(F)c(C(=O)NC4C(=O)NC(C(C)C)C(=O)N5CCCC5C(=O)N(C)CC(=O)N(C)C(C(C)C)C(=O)OC4C)c3nc-2c(C(=O)NC2C(=O)NC(C(C)C)C(=O)N3CCCC3C(=O)N(C)CC(=O)N(C)C(C(C)C)C(=O)OC2C)c(N)c1=O (configuration not stated)	–	0.119 µM	–
O=C(CCN1CCCC1)Nc1ccc2c(NCCc3ccccc3)c3ccccc3nc2c1	2.02 µM	0.447 µM	–
N#Cc1ccc(C2Oc3ccc(Cl)cc3C=C2[N+](=O)[O-])cc1 (configuration not stated)	3.37 µM	–	–
CO[C@]12CC(=O)C3(C(C[C@H]4CC5CC[C@H]6C[C@@H](OC(C)=O)CC[C@]6(OC(C)=O)C5C[C@@]43C)C1)C1C[C@H]3[C@@H]4CC[C@H]5C[C@@H](OC(C)=O)CC[C@]5(OC(C)=O)[C@H]4CC[C@]3(C)C12 (some centres not stated)	> 100 µM	–	–
COc1ccc(C2C(C#N)=C(S)N(C3OC(CO)C(O)C(O)C3O)C(C)=C2C(C)=O)cc1 (configuration not stated)	> 100 µM	–	–
O=C1c2cc3c(cc2CC1Cc1ccc2c(c1)CCC2)CCC3 (configuration not stated)	> 100 µM	–	–
OC(C1CCCCCCCCCC1)C(O)C1CCCCCCCCCC1 (configuration not stated)	> 100 µM	–	–
COc1cc(-c2nc(-c3ccc(-c4nc5ccc(F)cc5[nH]4)cc3)no2)cc(OC)c1OC	52.4 µM	13 µM	–
CC(C)=CCC[C@@H](C)C1=CC(=O)C(C)=C(O)C1=O	25.7 µM	–	–
CC(C)C1=C(Cc2ccccc2)C(=O)O/C1=C\c1ccc(O)c(Cl)c1	30.9 µM	–	–
COC1=CC(=O)c2nc3ccccc3c3ccnc1c23	16.1 µM	–	–
Cn1cnc(SC2=C3C(=O)C=C4S[C@H]5C[C@]42c2c(c(O)c4c6c2=[N+]3CCC=6C=N4)N5)c1CC(N)C(=O)O (some centres not stated)	36.3 µM	–	–
C=C(C)[C@@H]1CC[C@]2(C(=O)O)CC[C@]3(C)[C@H](CC[C@@H]4[C@@]5(C)C/C(=C/c6cccc(I)c6)C(=O)C(C)(C)[C@@H]5CC[C@]43C)[C@@H]12	9.1 µM	2.44 µM	–
Cc1cccc(C(C)C)c1NC(=O)CCl	> 100 µM	–	–
COc1ccc2c(c1)[nH]c(=O)c1c3cc(OC)c(OC)cc3cn21	17.2 µM	0.0538 µM	–
CCN(CC)c1ccc2cc(C(N)=O)c(=Nc3ccc(F)cc3)oc2c1	> 100 µM	–	–
C1=CN2C[n+]3ccc4ccccc4c3N=C2c2ccccc21	32.4 µM	–	–

SMILES	TGI	GI50	outcome
CN1C(=O)CCC1c1ccc2c(c1)oc(=O)n2C (configuration not stated)	> 100 µM	–	–
COc1cc(S(=O)(=O)Nc2ccc(-c3csc(N4C(=O)C(C)SC4c4ccccc4)n3)cc2)ccc1Cl (configuration not stated)	> 100 µM	–	–
Fc1ccc([C@@H]2CCNC[C@H]2COc2ccc3c(c2)OCO3)cc1	22.6 µM	10.3 µM	–
COc1cc2c(c(OC)c1OC)-c1ccc(SC)c(=O)cc1[C@@H](NC(=O)c1ccc([N+](=O)[O-])cc1)CC2	> 100 µM	–	–
O=C1CC(c2ccsc2)c2snc(-c3ccc(Cl)cc3)c2N1 (configuration not stated)	> 100 µM	5.9 µM	–
CN(C)c1ccc2cc3ccc(N(C)C)cc3nc2c1	14.2 µM	–	–
Cc1cc2oc3c(ccc(=O)n3C)c(=O)c2c(C)c1Cl	> 100 µM	–	–
CCCC(C)c1c(Cl)nc(Cl)nc1Cl (configuration not stated)	25.4 µM	–	–
CN(C)c1ccc(Nc2c3ccccc3nc3cc(NC(=O)CCN4CCCC4)ccc23)cc1	1.96 µM	0.451 µM	–
Fc1cccc(Cl)c1Cn1c(-c2c(F)cccc2Cl)nc2ccccc21	36 µM	14 µM	–
S=C(N/N=C(\C(=N/NC(=S)N1CCCCC1)c1ccccn1)c1ccccn1)N1CCCCC1	> 100 µM	–	–
CC(O)C(NC(=O)c1ccccc1)C(=O)N(Cc1ccccc1)Cc1ccccc1 (configuration not stated)	> 100 µM	–	–
COc1cc(C(=O)O/N=C(\N)Cc2cccc3ccccc23)cc(OC)c1OC	33.9 µM	15.7 µM	–
O=C1c2cccc3c(Cl)ccc(c23)C(=O)N1CCCN1CCN(CCCN2C(=O)c3cccc4c(Cl)ccc(c34)C2=O)CC1	> 100 µM	–	–
O=P(O)(O)CN1CCNCCN(CP(=O)(O)O)CCN(CP(=O)(O)O)CCNCC1	–	–	inactive
COc1cc(C(O)C(=O)c2cnc3cc([N+](=O)[O-])ccc3n2)ccc1O (configuration not stated)	> 100 µM	–	–
CCOc1ccc(NCC2CC/C(=C\c3ccc(Cl)cc3)C2=O)cc1 (configuration not stated)	> 100 µM	–	–
Cc1ccc(N=C2SC(=NN(C)C)SC2=Nc2ccc(C)cc2)cc1	> 100 µM	–	–
COc1cccc([C@@H]2CC(=O)c3cc4c(cc3N2)OCO4)c1	> 100 µM	–	–
CC1C(C#N)(C#N)C(C#N)=C(N)C1(C)[N+](=O)[O-] (configuration not stated)	> 100 µM	–	–
Cc1ccc2c(=O)cc(Cc3csc4ccccc34)[nH]c2n1	> 100 µM	–	–
O=C(c1ccco1)c1nc2cc(C(F)(F)F)ccc2[n+]([O-])c1C(F)(F)F	> 100 µM	43.7 µM	–
O=C1CCC2(c3ccc(Cl)cc3)Nc3ncncc3N12 (configuration not stated)	> 10 µM	–	–
Nc1ccccc1OCCCOc1ccccc1N	> 100 µM	–	–
COc1ccc2c(c1)C(=O)c1c-2c(N2CCN(C(=O)CNCCN(C)C)CC2)nc2ccccc12	14.9 µM	3.47 µM	–

SMILES	TGI	GI50	outcome
O=C(/C=C/c1ccccc1O)c1cccc2ccccc12	> 100 µM	–	–
O=C(CC(c1ccccc1)C(C(=O)c1ccncc1)C(CC(=O)c1ccncc1)c1ccccc1)c1ccncc1 (configuration not stated)	> 100 µM	–	–
O=C(NO)c1ccc(Cn2c(=O)n(-c3ccccc3)c(=O)c3ccccc32)cc1	7.22 µM	1.65 µM	–
O=C(Cn1c(C(=O)c2ccc(Cl)cc2)nc(-c2ccccc2)c1-c1ccccc1)c1ccc(Cl)cc1	> 100 µM	> 100 µM	–
C[C@@]12C[C@@H](c3ccccc3O1)N1Cc3ccccc3CSC1=N2	> 100 µM	–	–
O=C(NNS(=O)(=O)c1ccccc1)c1csc(NC(=S)NC2CCCCC2)n1	> 100 µM	–	–
COc1ccc(N2N=NN(C(C)C)/C2=C(/Cl)c2nnnn2-c2ccc(OC)cc2)cc1	30 µM	–	–
Nc1nccc2c1ccn2-c1cccc(NC(=O)c2ccc(N3CCOCC3)c(C(F)(F)F)c2)c1	> 50 µM	1.8 µM	–
COc1cc2c(c(OC)c1OC)-c1ccc(SC)c(=O)cc1[C@@H](NCc1cccc([N+](=O)[O-])c1)CC2	> 100 µM	–	–
CC#CC#C/C=C1\C=CC2(OC=CC2OC(C)=O)O1 (configuration not stated)	> 100 µM	–	–
Cn1nc2ccc3nccc(NCCNCCO)c3c2n1	> 100 µM	–	–
O=C1NC(=O)[C@@H](c2c[nH]c3ccccc23)[C@@H]1c1c[nH]c2ccccc12	> 25 µM	> 25 µM	–
CCSc1ccc([C@@H]2[C@@H](N)C(=O)N2c2cc(OC)c(OC)c(OC)c2)cc1	> 100 µM	0.665 µM	–
N#CCc1nc2cc(C(F)(F)F)ccc2s1	> 100 µM	–	–
O=C1C(Br)=C(Br)C(=O)c2ccccc21	94.6 µM and 31.4 µM	–	–
Clc1ccc2nc(Cl)c3ccccc3c2c1	43 µM	5.54 µM	–
O=C(Oc1ccc2c(-c3ccccc3)c(C(=O)Nc3ccc(Cl)cc3)c(=O)oc2c1)c1ccccc1	> 100 µM	–	–
CC1=NN(C(=O)Cc2ccccc2)C(=O)/C1=C\c1ccccc1O	> 100 µM	–	–
O=NN1C(c2ccccc2)CCCC1c1ccccc1 (configuration not stated)	> 100 µM	–	–
Cc1cn([C@@H]2C[C@H](CO)[C@@H]2O)c(=O)[nH]c1=O	> 100 µM	–	–
O=C1CCNC(=O)NC1	> 100 µM	–	–
CNc1ccc([N+](=O)[O-])c2c(NCCCN(C)C)ccnc12	> 100 µM	–	–
COC12C=CC(CC1)C(C)(C)C2OS(C)(=O)=O (configuration not stated)	> 100 µM	–	–
CS(=O)(=O)OCC1CCCCCCCCCCC12SCCCS2 (configuration not stated)	> 100 µM	–	–
CN(C)CCNC(=O)c1c2ccccc2cc2ccccc12	> 100 µM	–	–

SMILES	TGI	GI50	outcome
OCC(O)COc1c(Cl)cc(Cl)cc1Cl (configuration not stated)	> 100 µM	–	–
O=C(c1ccccc1)c1c(C(F)(F)F)n([O-])c2cc(F)c(F)cc2[n+]1=O	–	5.47 µM	–
COc1ccc(Cn2c3ccc([N+](=O)[O-])cc3c(=O)n2Cc2ccccn2)cc1	> 100 µM	–	–
CC(C)C[CH2][Ge]([CH2]CC(C)C)([CH2]CC(C)C)[CH2]CC(C)C	> 100 µM	> 100 µM	–
Oc1ccc(Oc2cnc3cc(Cl)ccc3n2)cc1	> 100 µM	66.2 µM	–
O=c1[nH]nc(Cc2ccc(Cl)cc2)n1/N=C/c1c[nH]c2ccccc12	> 100 µM	–	–
CCOC(=O)c1ccc(N(C=O)CCC(=O)CCl)cc1	20 µM	6.37 µM	–
CCCCCCCCCCCCCCCC(=O)OCC1OC(OC)C(NC(=O)N(CCCl)N=O)C(O)C1O (configuration not stated)	58 µM	–	–
O=C1/C(=C/c2ccc(Cl)cc2)CCC1CN1CCOCC1 (configuration not stated)	45.2 µM	–	–
CC(=O)OCCOCNC(=S)N/N=C(\C)c1cccs1	> 100 µM	–	–
COC1C(CO)OC(n2c3c(Cl)cccc3c3c4c(c5c6cccc(Cl)c6[nH]c5c32)C(=O)NC4=O)C(O)C1O (configuration not stated)	25.3 µM	–	–
OC1(c2ccc(Cl)cc2)c2c(c3ccccc3c3ccccc23)C2=NCCN21 (configuration not stated)	61.3 µM	–	–
OCC1OC(c2ccccc2)CC1O (configuration not stated)	> 100 µM	–	–
O=C(Cc1csc2nc(-c3ccc(Br)cc3)cn12)N/N=C/c1ccc(Cl)cc1Cl	69.9 µM	24.3 µM	–
CC(C)CN1CC(C)C(=O)NC1=O (configuration not stated)	> 100 µM	–	–
O=C(N[C@H]1CCC[C@H]1C(=O)Nc1ccc(C(F)(F)F)cc1)OCc1ccccc1	> 100 µM	–	–
COc1cc2[nH]c(=O)c3cc(C)cc4c(Cl)nc(c1OC)c2c43	> 100 µM	–	–
CCOC(=O)C(NC(=O)CC)(Nc1ccc(S(=O)(=O)Nc2ccc(OC)nn2)cc1)C(F)(F)F (configuration not stated)	> 100 µM	–	–
c1ccc2cc(C[n+]3ccn(Cc4ccc5ccccc5n4)c3)ccc2c1	13.8 µM and 21.1 µM	2.86 µM and 7.18 µM	–
COc1cc(/C(=C2/O[C@@H]([C@H]3COC(C)(C)O3)[C@H]3OC(C)(C)O[C@@H]23)c2ccc3c(c2)OCO3)cc(OC)c1OC	> 25 µM	> 25 µM	–
CC1CCOc2ccc(cc2)C=Nc2ccc(cc2)-c2ccc(cc2)N=Cc2ccc(cc2)OCC1 (configuration not stated)	> 100 µM	–	–
OCCn1cc(-c2cnc3nnn(Cc4ccc5ncccc5c4)c3n2)cn1	> 100 µM	> 100 µM	–
C[N+](C)(C)CC(CC(=O)[O-])C1CC1 (configuration not stated)	> 100 µM	–	–
Nc1nc(-c2ccc(Cl)cc2)cc(-c2ccc(Cl)cc2)c1-c1nc2ccccc2o1	31 µM	15.6 µM	–
